In one assay the target is T1, FLAG-Raf1 (S. pombe) (UniProt O74910).
T1 sequence: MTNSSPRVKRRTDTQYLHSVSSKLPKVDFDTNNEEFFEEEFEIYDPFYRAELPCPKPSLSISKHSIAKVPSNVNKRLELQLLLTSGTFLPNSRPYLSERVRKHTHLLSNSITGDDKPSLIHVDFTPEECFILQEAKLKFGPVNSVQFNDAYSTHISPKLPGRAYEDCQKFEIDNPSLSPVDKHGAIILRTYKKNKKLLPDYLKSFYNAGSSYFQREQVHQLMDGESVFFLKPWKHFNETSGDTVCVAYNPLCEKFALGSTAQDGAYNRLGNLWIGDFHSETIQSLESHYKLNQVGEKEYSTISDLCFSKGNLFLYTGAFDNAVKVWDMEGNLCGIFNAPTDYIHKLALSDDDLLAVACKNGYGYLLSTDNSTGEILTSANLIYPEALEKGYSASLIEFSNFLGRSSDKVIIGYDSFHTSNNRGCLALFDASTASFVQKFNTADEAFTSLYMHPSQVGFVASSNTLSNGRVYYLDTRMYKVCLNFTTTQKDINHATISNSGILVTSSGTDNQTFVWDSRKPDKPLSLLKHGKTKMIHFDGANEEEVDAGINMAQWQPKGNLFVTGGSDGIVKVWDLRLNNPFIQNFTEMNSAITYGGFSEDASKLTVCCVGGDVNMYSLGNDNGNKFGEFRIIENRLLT
Description: co-IP; anti-FLAG M2 on proteinG Dynabeads, 1 hr, S. pombe lysate (50 mM Hepes pH7.5, 150 mM KCl, 0.1% NP40), four washes, Western with anti-FLAG and anti-myc; raf1-1 panels and their wild type from cells grown at 36°C.

Chains of the proteins cited; added tags and fusions are not shown.
UniProt Q9HDV4: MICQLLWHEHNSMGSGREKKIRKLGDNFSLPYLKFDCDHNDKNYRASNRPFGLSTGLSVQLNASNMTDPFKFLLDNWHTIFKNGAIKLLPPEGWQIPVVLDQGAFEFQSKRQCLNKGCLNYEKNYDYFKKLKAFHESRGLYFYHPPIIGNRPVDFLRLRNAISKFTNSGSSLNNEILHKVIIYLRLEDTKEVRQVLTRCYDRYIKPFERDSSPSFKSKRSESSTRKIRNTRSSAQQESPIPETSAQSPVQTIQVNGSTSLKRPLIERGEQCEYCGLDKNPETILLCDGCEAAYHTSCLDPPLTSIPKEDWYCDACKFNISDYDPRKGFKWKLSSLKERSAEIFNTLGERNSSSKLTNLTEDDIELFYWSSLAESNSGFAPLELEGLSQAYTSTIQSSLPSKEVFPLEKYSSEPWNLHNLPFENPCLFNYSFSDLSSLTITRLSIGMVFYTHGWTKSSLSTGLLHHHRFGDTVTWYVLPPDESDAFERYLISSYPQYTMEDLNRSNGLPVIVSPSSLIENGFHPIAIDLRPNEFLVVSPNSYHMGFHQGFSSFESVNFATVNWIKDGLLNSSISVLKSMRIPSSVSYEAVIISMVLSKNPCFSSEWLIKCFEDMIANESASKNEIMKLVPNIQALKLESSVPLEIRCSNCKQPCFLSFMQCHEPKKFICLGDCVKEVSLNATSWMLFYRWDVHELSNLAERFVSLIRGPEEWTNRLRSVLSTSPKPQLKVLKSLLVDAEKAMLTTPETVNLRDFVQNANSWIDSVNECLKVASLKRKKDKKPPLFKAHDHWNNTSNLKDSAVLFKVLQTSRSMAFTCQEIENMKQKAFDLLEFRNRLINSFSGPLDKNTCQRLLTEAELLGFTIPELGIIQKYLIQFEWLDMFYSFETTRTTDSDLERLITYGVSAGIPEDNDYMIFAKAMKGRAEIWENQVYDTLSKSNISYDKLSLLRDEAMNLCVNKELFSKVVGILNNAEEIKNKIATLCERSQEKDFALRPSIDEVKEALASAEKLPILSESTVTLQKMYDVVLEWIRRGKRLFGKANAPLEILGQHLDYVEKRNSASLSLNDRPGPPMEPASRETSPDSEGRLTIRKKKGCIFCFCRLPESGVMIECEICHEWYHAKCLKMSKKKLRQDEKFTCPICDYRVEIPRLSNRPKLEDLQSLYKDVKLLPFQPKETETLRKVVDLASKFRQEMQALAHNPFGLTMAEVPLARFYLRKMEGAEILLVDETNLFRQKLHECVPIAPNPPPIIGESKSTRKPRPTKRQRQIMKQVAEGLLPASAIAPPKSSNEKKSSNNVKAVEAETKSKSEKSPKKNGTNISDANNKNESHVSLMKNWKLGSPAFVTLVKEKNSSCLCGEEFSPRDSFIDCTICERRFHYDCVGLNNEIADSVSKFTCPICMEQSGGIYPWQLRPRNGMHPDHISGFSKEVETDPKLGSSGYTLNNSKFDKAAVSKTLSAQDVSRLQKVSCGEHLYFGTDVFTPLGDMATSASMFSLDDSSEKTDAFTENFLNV
UniProt O60016: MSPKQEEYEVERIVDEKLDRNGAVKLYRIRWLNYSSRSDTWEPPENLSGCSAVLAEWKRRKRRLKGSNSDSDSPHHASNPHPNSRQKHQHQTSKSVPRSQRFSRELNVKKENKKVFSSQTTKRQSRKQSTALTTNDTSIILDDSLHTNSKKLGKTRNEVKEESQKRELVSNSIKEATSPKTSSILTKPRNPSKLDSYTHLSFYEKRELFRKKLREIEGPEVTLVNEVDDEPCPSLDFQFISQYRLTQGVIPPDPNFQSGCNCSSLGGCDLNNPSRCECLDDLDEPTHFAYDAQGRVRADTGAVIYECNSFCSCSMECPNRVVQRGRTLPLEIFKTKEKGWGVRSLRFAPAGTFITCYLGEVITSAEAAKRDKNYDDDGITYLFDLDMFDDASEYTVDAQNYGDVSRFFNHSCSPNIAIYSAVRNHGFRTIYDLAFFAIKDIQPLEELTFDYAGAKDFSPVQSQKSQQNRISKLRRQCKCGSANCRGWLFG

The next assay has as its target T2, FLAG-Raf1-1 (S. pombe) (UniProt O74910).
T2 sequence: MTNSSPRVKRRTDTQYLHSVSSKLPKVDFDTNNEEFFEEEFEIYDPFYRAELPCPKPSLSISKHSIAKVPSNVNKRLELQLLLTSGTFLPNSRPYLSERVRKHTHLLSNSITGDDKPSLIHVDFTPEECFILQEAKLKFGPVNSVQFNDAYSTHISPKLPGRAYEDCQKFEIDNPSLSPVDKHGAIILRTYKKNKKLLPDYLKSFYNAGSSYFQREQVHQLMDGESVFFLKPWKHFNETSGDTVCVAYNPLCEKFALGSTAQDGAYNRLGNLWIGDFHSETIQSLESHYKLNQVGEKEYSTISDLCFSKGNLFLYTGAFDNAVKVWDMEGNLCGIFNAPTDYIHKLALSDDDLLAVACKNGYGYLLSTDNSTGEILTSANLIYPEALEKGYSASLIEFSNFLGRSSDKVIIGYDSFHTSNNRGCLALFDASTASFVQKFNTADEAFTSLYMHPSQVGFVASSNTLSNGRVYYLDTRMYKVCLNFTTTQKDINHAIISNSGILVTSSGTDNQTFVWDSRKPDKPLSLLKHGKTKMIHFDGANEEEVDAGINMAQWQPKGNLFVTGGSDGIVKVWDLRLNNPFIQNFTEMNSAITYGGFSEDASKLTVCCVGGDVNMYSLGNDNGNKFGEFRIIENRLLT
The assay is described as above.

Assay [1] addresses T3, FLAG-Raf1-R518A (S. pombe) (UniProt O74910).
T3 sequence: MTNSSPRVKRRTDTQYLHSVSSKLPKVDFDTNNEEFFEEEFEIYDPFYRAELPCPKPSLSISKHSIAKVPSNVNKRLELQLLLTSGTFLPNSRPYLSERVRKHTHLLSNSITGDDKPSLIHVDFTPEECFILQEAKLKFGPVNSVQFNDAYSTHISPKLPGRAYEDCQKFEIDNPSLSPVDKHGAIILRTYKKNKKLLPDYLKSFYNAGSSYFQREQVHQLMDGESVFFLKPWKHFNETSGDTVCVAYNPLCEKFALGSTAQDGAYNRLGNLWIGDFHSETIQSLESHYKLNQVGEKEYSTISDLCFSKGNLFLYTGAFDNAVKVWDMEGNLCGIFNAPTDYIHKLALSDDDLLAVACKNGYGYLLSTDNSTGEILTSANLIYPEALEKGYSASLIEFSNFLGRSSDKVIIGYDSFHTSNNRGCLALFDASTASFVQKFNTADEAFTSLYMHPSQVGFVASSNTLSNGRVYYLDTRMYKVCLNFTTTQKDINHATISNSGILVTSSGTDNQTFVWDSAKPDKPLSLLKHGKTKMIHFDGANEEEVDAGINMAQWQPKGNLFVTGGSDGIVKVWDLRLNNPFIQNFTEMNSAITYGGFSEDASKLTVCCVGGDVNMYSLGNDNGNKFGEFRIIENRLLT
Described as above.

Assay [2] deals with T4, FLAG-Raf1-R576A (S. pombe) (UniProt O74910).
T4 sequence: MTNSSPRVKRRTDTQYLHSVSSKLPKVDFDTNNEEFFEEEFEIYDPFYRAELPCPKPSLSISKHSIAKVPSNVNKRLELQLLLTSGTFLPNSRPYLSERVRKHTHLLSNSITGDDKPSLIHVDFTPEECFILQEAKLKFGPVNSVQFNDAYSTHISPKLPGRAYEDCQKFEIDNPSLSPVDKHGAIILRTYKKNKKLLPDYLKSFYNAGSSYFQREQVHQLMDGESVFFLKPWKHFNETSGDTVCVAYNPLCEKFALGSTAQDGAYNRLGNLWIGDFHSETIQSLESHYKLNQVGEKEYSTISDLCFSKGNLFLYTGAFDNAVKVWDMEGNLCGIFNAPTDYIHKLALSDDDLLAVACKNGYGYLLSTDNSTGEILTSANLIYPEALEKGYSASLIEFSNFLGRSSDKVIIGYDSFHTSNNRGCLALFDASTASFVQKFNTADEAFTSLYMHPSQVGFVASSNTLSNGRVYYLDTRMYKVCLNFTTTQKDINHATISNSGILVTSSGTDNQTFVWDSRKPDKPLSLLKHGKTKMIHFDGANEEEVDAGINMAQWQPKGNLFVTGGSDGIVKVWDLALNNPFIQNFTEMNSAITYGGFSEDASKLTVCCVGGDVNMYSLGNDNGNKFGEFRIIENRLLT
The description is as above.

Assay [3] addresses T5, Rik1 (two-hybrid fusion) (S. pombe) (UniProt Q10426).
T5 sequence: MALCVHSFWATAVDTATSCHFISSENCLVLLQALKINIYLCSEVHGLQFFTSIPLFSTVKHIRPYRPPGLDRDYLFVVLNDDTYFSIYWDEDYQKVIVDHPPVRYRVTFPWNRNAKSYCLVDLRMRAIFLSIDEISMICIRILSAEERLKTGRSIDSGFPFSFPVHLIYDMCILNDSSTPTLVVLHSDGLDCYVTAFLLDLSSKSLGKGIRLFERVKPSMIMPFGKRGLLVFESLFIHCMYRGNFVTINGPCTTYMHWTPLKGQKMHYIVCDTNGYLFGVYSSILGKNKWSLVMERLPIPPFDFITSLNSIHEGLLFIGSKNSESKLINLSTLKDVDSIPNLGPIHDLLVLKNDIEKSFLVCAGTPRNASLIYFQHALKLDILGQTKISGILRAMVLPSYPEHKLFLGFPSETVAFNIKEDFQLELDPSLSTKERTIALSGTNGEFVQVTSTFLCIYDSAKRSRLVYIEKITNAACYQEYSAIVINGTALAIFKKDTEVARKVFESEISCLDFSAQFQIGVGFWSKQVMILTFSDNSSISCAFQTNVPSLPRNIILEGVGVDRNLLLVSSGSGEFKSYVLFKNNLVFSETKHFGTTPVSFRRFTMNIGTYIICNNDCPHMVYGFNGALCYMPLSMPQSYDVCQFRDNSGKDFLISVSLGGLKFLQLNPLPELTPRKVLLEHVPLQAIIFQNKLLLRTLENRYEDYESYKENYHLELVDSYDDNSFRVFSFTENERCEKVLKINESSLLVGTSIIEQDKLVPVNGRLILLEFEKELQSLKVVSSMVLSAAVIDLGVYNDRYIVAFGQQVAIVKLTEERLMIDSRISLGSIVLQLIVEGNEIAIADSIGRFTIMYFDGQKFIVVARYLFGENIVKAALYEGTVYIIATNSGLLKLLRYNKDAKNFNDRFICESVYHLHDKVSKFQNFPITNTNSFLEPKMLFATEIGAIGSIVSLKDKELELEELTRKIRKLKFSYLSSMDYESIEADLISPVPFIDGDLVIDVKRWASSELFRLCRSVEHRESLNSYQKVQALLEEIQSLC
As to the kind of experiment: two-hybrid; yeast two-hybrid, GAL4 Binding and Activation Domain fusions, growth on -Leu, -Trp, -His, -Ade plates.

A further assay addresses Lid2-TAP (S. pombe) (UniProt Q9HDV4). As to the kind of experiment: co-IP; TAP-tagged bait on Dynabeads coupled to IgG, S. pombe lysate (50 mM Hepes pH7.5, 150 mM KCl, 0.1% NP40), Western with anti-FLAG; raf1-1 panel from cells grown at 36°C.

These are yes or no findings as the source states them, for the method shown. For part of these data: In cells and extracts the contact can be indirect. Some binding calls cover weakened binding; strength is not graded here. Sequences can lack the tags named with a protein.

In the case of “Clr4-Myc (from UniProt O60016 1-490) (enzyme)”, the binding result in the assay with FLAG-Raf1 (S. pombe) is “binds”; with FLAG-Raf1-1 (S. pombe), “no binding”; in assay [1], “no binding”; in assay [2], “no binding”.

B1: Raf1 (two-hybrid fusion) (protein, UniProt O74910 1-638)
chain: MTNSSPRVKRRTDTQYLHSVSSKLPKVDFDTNNEEFFEEEFEIYDPFYRAELPCPKPSLSISKHSIAKVPSNVNKRLELQLLLTSGTFLPNSRPYLSERVRKHTHLLSNSITGDDKPSLIHVDFTPEECFILQEAKLKFGPVNSVQFNDAYSTHISPKLPGRAYEDCQKFEIDNPSLSPVDKHGAIILRTYKKNKKLLPDYLKSFYNAGSSYFQREQVHQLMDGESVFFLKPWKHFNETSGDTVCVAYNPLCEKFALGSTAQDGAYNRLGNLWIGDFHSETIQSLESHYKLNQVGEKEYSTISDLCFSKGNLFLYTGAFDNAVKVWDMEGNLCGIFNAPTDYIHKLALSDDDLLAVACKNGYGYLLSTDNSTGEILTSANLIYPEALEKGYSASLIEFSNFLGRSSDKVIIGYDSFHTSNNRGCLALFDASTASFVQKFNTADEAFTSLYMHPSQVGFVASSNTLSNGRVYYLDTRMYKVCLNFTTTQKDINHATISNSGILVTSSGTDNQTFVWDSRKPDKPLSLLKHGKTKMIHFDGANEEEVDAGINMAQWQPKGNLFVTGGSDGIVKVWDLRLNNPFIQNFTEMNSAITYGGFSEDASKLTVCCVGGDVNMYSLGNDNGNKFGEFRIIENRLLT
For the molecule B1, in assay [3], the binding entry is “binds”.

B2: Rik1-FLAG (protein, UniProt Q10426 1-1040)
chain: MALCVHSFWATAVDTATSCHFISSENCLVLLQALKINIYLCSEVHGLQFFTSIPLFSTVKHIRPYRPPGLDRDYLFVVLNDDTYFSIYWDEDYQKVIVDHPPVRYRVTFPWNRNAKSYCLVDLRMRAIFLSIDEISMICIRILSAEERLKTGRSIDSGFPFSFPVHLIYDMCILNDSSTPTLVVLHSDGLDCYVTAFLLDLSSKSLGKGIRLFERVKPSMIMPFGKRGLLVFESLFIHCMYRGNFVTINGPCTTYMHWTPLKGQKMHYIVCDTNGYLFGVYSSILGKNKWSLVMERLPIPPFDFITSLNSIHEGLLFIGSKNSESKLINLSTLKDVDSIPNLGPIHDLLVLKNDIEKSFLVCAGTPRNASLIYFQHALKLDILGQTKISGILRAMVLPSYPEHKLFLGFPSETVAFNIKEDFQLELDPSLSTKERTIALSGTNGEFVQVTSTFLCIYDSAKRSRLVYIEKITNAACYQEYSAIVINGTALAIFKKDTEVARKVFESEISCLDFSAQFQIGVGFWSKQVMILTFSDNSSISCAFQTNVPSLPRNIILEGVGVDRNLLLVSSGSGEFKSYVLFKNNLVFSETKHFGTTPVSFRRFTMNIGTYIICNNDCPHMVYGFNGALCYMPLSMPQSYDVCQFRDNSGKDFLISVSLGGLKFLQLNPLPELTPRKVLLEHVPLQAIIFQNKLLLRTLENRYEDYESYKENYHLELVDSYDDNSFRVFSFTENERCEKVLKINESSLLVGTSIIEQDKLVPVNGRLILLEFEKELQSLKVVSSMVLSAAVIDLGVYNDRYIVAFGQQVAIVKLTEERLMIDSRISLGSIVLQLIVEGNEIAIADSIGRFTIMYFDGQKFIVVARYLFGENIVKAALYEGTVYIIATNSGLLKLLRYNKDAKNFNDRFICESVYHLHDKVSKFQNFPITNTNSFLEPKMLFATEIGAIGSIVSLKDKELELEELTRKIRKLKFSYLSSMDYESIEADLISPVPFIDGDLVIDVKRWASSELFRLCRSVEHRESLNSYQKVQALLEEIQSLC
For the molecule B2, the binding entry in the assay with Lid2-TAP (S. pombe) was “no binding”.
